Experimental data taken from the supplement of paper PMC8728848.
The list shows a part of the results.

What was measured:
Experiment in all cases: glycan array binding signal (z-score within array); higher = stronger binding
Settings in all cases: glycan notation: IUPAC condensed, linker removed
[1] = molecular target: Fuc(a1-3)[Gal(b1-4)]GlcNAc(b1-6)[Gal(b1-3)GlcNAc(b1-3)]Gal(b1-4)Glc
Summary of the method: (§1)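 Negative Z-scores can be read as non-binding. The Z-score is calculated within each array and then averaged across arrays of one protein sequence at different concentrations or buffers and across linkers. Arrays, 3228 in all, were curated from the Consortium for Functional Glycomics database and kept only where the protein sequence was available.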

[2] = molecular target: Fuc(a1-3)[Gal(b1-4)]GlcNAc6S
Summary of the method: as §1

[3] = molecular target: Fuc(a1-3)[Gal3S(b1-4)]Glc
Summary of the method: as §1

[4] = molecular target: Fuc(a1-3)[Gal3S(b1-4)]GlcNAc
Summary of the method: as §1

[5] = molecular target: Fuc(a1-3)[Gal3S(b1-4)]GlcNAc6S
Summary of the method: as §1

[6] = molecular target: Fuc(a1-3)[GalNAc(b1-4)]GlcNAc
Summary of the method: as §1

[7] = molecular target: Fuc(a1-3)[GalNAc(b1-4)]GlcNAc6S
Summary of the method: as §1

[8] = molecular target: Fuc(a1-4)GlcNAc
Summary of the method: as §1

[9] = molecular target: Fuc(b1-3)GlcNAc
Summary of the method: as §1

[10] = molecular target: Gal(a1-2)Gal
Summary of the method: as §1

[11] = molecular target: Gal(a1-3)Gal
Summary of the method: as §1

[12] = molecular target: Gal(a1-3)Gal(b1-3)GlcNAc
Summary of the method: as §1

[13] = molecular target: Gal(a1-3)Gal(b1-3)GlcNAc(b1-2)Man
Summary of the method: as §1

[14] = molecular target: Gal(a1-3)Gal(b1-3)GlcNAc(b1-2)Man(a1-3)[Gal(a1-3)Gal(b1-3)GlcNAc(b1-2)Man(a1-6)]Man(b1-4)GlcNAc(b1-4)GlcNAc
Summary of the method: as §1

[15] = molecular target: Gal(a1-3)Gal(b1-3)GlcNAc(b1-3)GalNAc
Summary of the method: as §1

[16] = molecular target: Gal(a1-3)Gal(b1-3)GlcNAc(b1-6)GalNAc
Summary of the method: as §1

[17] = molecular target: Gal(a1-3)Gal(b1-3)[Fuc(a1-4)]GlcNAc(b1-2)Man(a1-3)[Gal(a1-3)Gal(b1-3)[Fuc(a1-4)]GlcNAc(b1-2)Man(a1-6)]Man(b1-4)GlcNAc(b1-4)GlcNAc
Summary of the method: as §1

[18] = molecular target: Gal(a1-3)Gal(b1-4)Glc
Summary of the method: as §1

[19] = molecular target: Gal(a1-3)Gal(b1-4)GlcNAc
Summary of the method: as §1

[20] = molecular target: Gal(a1-3)Gal(b1-4)GlcNAc(b1-2)Man
Summary of the method: as §1

[21] = molecular target: Gal(a1-3)Gal(b1-4)GlcNAc(b1-2)Man(a1-3)[Gal(a1-3)Gal(b1-4)GlcNAc(b1-2)Man(a1-6)]Man(b1-4)GlcNAc(b1-4)GlcNAc
Summary of the method: as §1

[22] = molecular target: Gal(a1-3)Gal(b1-4)GlcNAc(b1-3)GalNAc
Summary of the method: as §1

[23] = molecular target: Gal(a1-3)Gal(b1-4)GlcNAc(b1-6)GalNAc
Summary of the method: as §1

[24] = molecular target: Gal(a1-3)Gal(b1-4)[Fuc(a1-3)]GlcNAc
Summary of the method: as §1

[25] = molecular target: Gal(a1-3)Gal(b1-4)[Fuc(a1-3)]GlcNAc(b1-2)Man(a1-3)[Gal(a1-3)Gal(b1-4)[Fuc(a1-3)]GlcNAc(b1-2)Man(a1-6)]Man(b1-4)GlcNAc(b1-4)GlcNAc
Summary of the method: as §1

[26] = molecular target: Gal(a1-3)GalNAc
Summary of the method: as §1

[27] = molecular target: Gal(a1-3)[Gal(a1-4)]Gal(b1-4)GlcNAc
Summary of the method: as §1

[28] = molecular target: Gal(a1-4)Gal(b1-3)GlcNAc(b1-2)Man(a1-3)[Gal(a1-4)Gal(b1-3)GlcNAc(b1-2)Man(a1-6)]Man(b1-4)GlcNAc(b1-4)GlcNAc
Summary of the method: as §1

[29] = molecular target: Gal(a1-4)Gal(b1-4)Glc
Summary of the method: as §1

[30] = molecular target: Gal(a1-4)Gal(b1-4)GlcNAc
Summary of the method: as §1

[31] = molecular target: Gal(a1-4)Gal(b1-4)GlcNAc(b1-2)Man(a1-3)[Gal(a1-4)Gal(b1-4)GlcNAc(b1-2)Man(a1-6)]Man(b1-4)GlcNAc(b1-4)GlcNAc
Summary of the method: as §1

[32] = molecular target: Gal(a1-4)Gal(b1-4)GlcNAc(b1-3)Gal(b1-4)Glc
Summary of the method: as §1

[33] = molecular target: Gal(a1-4)GlcNAc
Summary of the method: as §1

[34] = molecular target: Gal(a1-6)Glc
Summary of the method: as §1

[35] = molecular target: Gal(b1-2)Gal
Summary of the method: as §1

[36] = molecular target: Gal(b1-3)Gal
Summary of the method: as §1

[37] = molecular target: Gal(b1-3)Gal(b1-4)GlcNAc
Summary of the method: as §1

B1: Gal 4 (Mus musculus), P56470 (protein)
chain: MAYVPAPGYQPTYNPTLPYYQPIPGGLNVGMSVYIQGVASEHMKRFFVNFVVGQDPGSDVAFHFNPRFDGWDKVVFNTLQGGKWGSEERKRSMPFKKGAAFELVFIVLAEHYKVVVNGNPFYEYGHRLPLQMVTHLQVDGDLQLQSINFIGGQPLRPQGPPMMPPYPGPGHCHQQLNSLPTMEGPPTFNPPVPYFGRLQGGLTARRTIIIKGYVPPTGKSFAINFKVGSSGDIALHINPRMGNGTVVRNSLLNGSWGSEEKKITHNPFGPGQFFDLSIRCGLDRFKVYANGQHLFDFAHRLSAFQRVDTLEIQGDVTLSYVQI
Q: Which “glycan array binding signal (z-score)” value [1] does the source give for B1 here?
A: The value was -0.241.

Q: What about the “glycan array binding signal (z-score)” value [2] of the same binder?
A: The value was -0.224.

Q: And the “glycan array binding signal (z-score)” value [3]?
A: The value was -0.291.

Q: And the “glycan array binding signal (z-score)” value [4]?
A: Its value is -0.236.

Q: And the “glycan array binding signal (z-score)” value [5]?
A: Its value is -0.221.

Q: What about the “glycan array binding signal (z-score)” value [6] of the same binder?
A: The value was -0.226.

Q: What about the “glycan array binding signal (z-score)” value [7] of the same binder?
A: Its value is -0.288.

Q: What about the “glycan array binding signal (z-score)” value [8] of the same binder?
A: The value was -0.237.

Q: And the “glycan array binding signal (z-score)” value [9]?
A: The value was -0.217.

Q: And the “glycan array binding signal (z-score)” value [10]?
A: The value was -0.23.

Q: What about the “glycan array binding signal (z-score)” value [11] of the same binder?
A: The value was -0.25.

Q: What about the “glycan array binding signal (z-score)” value [12] of the same binder?
A: Its value is -0.217.

Q: And the “glycan array binding signal (z-score)” value [13]?
A: Its value is -0.301.

Q: And the “glycan array binding signal (z-score)” value [14]?
A: The value was -0.169.

Q: What about the “glycan array binding signal (z-score)” value [15] of the same binder?
A: The value was -0.162.

Q: What about the “glycan array binding signal (z-score)” value [16] of the same binder?
A: Its value is -0.257.

Q: And the “glycan array binding signal (z-score)” value [17]?
A: The value was -0.177.

Q: What about the “glycan array binding signal (z-score)” value [18] of the same binder?
A: Its value is 1.

Q: What about the “glycan array binding signal (z-score)” value [19] of the same binder?
A: Its value is -0.128.

Q: And the “glycan array binding signal (z-score)” value [20]?
A: The value was -0.16.

Q: What about the “glycan array binding signal (z-score)” value [21] of the same binder?
A: Its value is -0.281.

Q: And the “glycan array binding signal (z-score)” value [22]?
A: Its value is -0.202.

Q: What about the “glycan array binding signal (z-score)” value [23] of the same binder?
A: Its value is -0.256.

Q: And the “glycan array binding signal (z-score)” value [24]?
A: Its value is -0.234.

Q: And the “glycan array binding signal (z-score)” value [25]?
A: Its value is -0.199.

Q: And the “glycan array binding signal (z-score)” value [26]?
A: The value was -0.214.

Q: And the “glycan array binding signal (z-score)” value [27]?
A: The value was -0.208.

Q: And the “glycan array binding signal (z-score)” value [28]?
A: Its value is -0.214.

Q: What about the “glycan array binding signal (z-score)” value [29] of the same binder?
A: Its value is -0.236.

Q: And the “glycan array binding signal (z-score)” value [30]?
A: Its value is -0.203.

Q: What about the “glycan array binding signal (z-score)” value [31] of the same binder?
A: The value was -0.229.

Q: What about the “glycan array binding signal (z-score)” value [32] of the same binder?
A: The value was 0.328.

Q: And the “glycan array binding signal (z-score)” value [33]?
A: The value was -0.243.

Q: What about the “glycan array binding signal (z-score)” value [34] of the same binder?
A: Its value is -0.242.

Q: And the “glycan array binding signal (z-score)” value [35]?
A: The value was -0.235.

Q: And the “glycan array binding signal (z-score)” value [36]?
A: Its value is -0.129.

Q: What about the “glycan array binding signal (z-score)” value [37] of the same binder?
A: Its value is 0.038.
